Experimental findings from PubChem BioAssay AID1963576 (National Center for Advancing Translational Sciences (NCATS), 2024) are described below.

Screen size: about 46,000 compounds; about 60 (0.1%) were called active. Roughly 3% stayed inconclusive and do not appear here. The call rests on the fitted dose curve; in most records, active means well fitted inhibition curve with a large enough effect; inconclusive means small, poorly fitted or top-dose-only effect; inactive means no such curve, though single readings can be large or run the other way. The list shows a part of the results.

This test is described as follows: Primary qHTS assay for Inhibitors of ovarian cancer metastasis using an organotypic tumor microenvironment (TME) model. Further: nearly all actives have a fitted effect of over 65% in size.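 On activity change, negative = inhibition: plate controls were DMSO wells for no effect and tomatine positive control wells for full effect.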 As to conditions: SKOV3ip1-GFP adhesion/invasion on 3D omental model, fluorescence; series mostly up to 45.8 µM; activity change, negative = inhibition: at the top concentration. An outline of the steps: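 A 3D layer of primary human omental fibroblasts, mesothelial cells, fibronectin and collagen I, grown 48 hr, received SKOV3ip1-GFP cells in serum-free medium plus compounds at 0.36-46 umol/L. After 2 hr RT and 16 hr 37 C, fixed adherent GFP cells were counted; normalized to DMSO and tomatine.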
As for `CCOC(=O)c1c(NC(=O)c2noc3c2CC(C(C)(C)C)CC3)sc2c1CCCC2` (stereo not drawn), the molecule was called inactive.
As for `COc1ccc(Cl)cc1NS(=O)(=O)c1cc(-c2cc(C)no2)ccc1C`, the “activity change, negative = inhibition” value was inactive: -21.7%.
The same measure, in the same setting: the result for `Cc1cc(Br)ccc1NC(=O)CCS(=O)(=O)c1cccc2nonc12` reads inactive: 8.58%.
`CCOC(=O)c1ccc(NC(=O)C2Cc3ccccc3CN2S(=O)(=O)c2ccc(Cl)cc2)cc1` (stereo not drawn): the outcome was inactive.
With `CC(NC(=O)Cn1ncc2c3ccccc3n(Cc3ccc(F)cc3)c2c1=O)c1ccccc1` (stereo not drawn), the “activity change, negative = inhibition” value is inactive: -0.816%.
For the molecule `O=C(NCC(c1cccs1)S(=O)(=O)c1cccs1)c1ccccc1` (stereo not drawn), the “activity change, negative = inhibition” value was inactive: 5.07%.
Same read-out and setting: the result for `CCOC(=O)N1CCN(S(=O)(=O)N2CCCC(C(=O)NCc3cccc(OC)c3)C2)CC1` (stereo not drawn) reads inactive: -22.7%; that for `CCC1CN(C(=O)N2CCC(C(=O)NCc3ccc(C)o3)CC2)c2cc(C)ccc2O1` (stereo not drawn), inactive: -0.242%; that for `CC1=C(C(=O)Nc2cc3cn[nH]c3cc2F)C(c2ccc(C(F)(F)F)cc2)CC(=O)N1` (stereo not drawn), inactive: 5.28%.
`CNC(=O)c1ccccc1Nc1nc(Nc2ccc(N3CCOCC3)cc2OC)ncc1Cl`: the “activity change, negative = inhibition” value was inactive: -9.48%.
The same measure, in the same setting: the result for `Cc1cccc(NC(=O)c2cnn(-c3ccccc3)c2-n2cccc2)c1C` reads inactive: -2.57%.
Same read-out and setting: the result for `COc1ccc(-c2cc(C(=O)Nc3c(C(=O)c4ccc(Cl)cc4)oc4ccccc34)no2)cc1` reads inactive: -6.3%; that for `CC(=O)N1CCC(N(Cc2ccco2)C(=O)Nc2cccc(C)c2)CC1`, inactive: 3.11%.
Regarding `CCOC(=O)c1cc2c(=O)n3ccccc3nc2n(CC2CCCO2)c1=NC(=O)c1cccc(C(F)(F)F)c1` (stereo not drawn), the molecule was classed as inactive.
In the case of `O=C(NC1CC(=O)N(c2ccc(F)cc2)C1)c1cc2ccccc2o1` (stereo not drawn), the “activity change, negative = inhibition” value is inactive: 13%.
For the molecule `CC(=O)N1CCCc2cc(S(=O)(=O)N3CCC(C(=O)NCCC(C)C)CC3)ccc21`, the “activity change, negative = inhibition” value was inactive: 9.28%.
With `Cc1nc2c(C(=O)NCc3ccccc3Cl)cnn2c(C)c1Cc1c(F)cccc1Cl`, the “activity change, negative = inhibition” value was inactive: 23%.
Regarding `CCOC(=O)c1nnc2c(-c3ccc(OC)cc3)c(C)nn2c1N`, the “activity change, negative = inhibition” value was inactive: -19%.
Take `COc1ccccc1NC(=O)n1ncc2c(C)cccc21`: the “activity change, negative = inhibition” value was inactive: 3.48%.
On to `CN1CCN(C(c2ccccc2)c2sc3nc(-c4ccco4)nn3c2O)CC1` (stereo not drawn), for which the molecule was called inactive.
Same read-out and setting: the result for `Cc1cccc(CCn2c(=O)c3ccccc3n(Cc3cccc(F)c3)c2=O)c1` reads “inactive”.
`COc1ccc(OC)c(C2CC(=O)c3c([nH]c(C(=O)OCC4CCCCC4)c3C)C2)c1` (stereo not drawn): the “activity change, negative = inhibition” value is inactive: -19.5%.
With `CC1CCc2nc(NC(=O)COc3ccc(C(C)(C)C)cc3)sc2C1` (stereo not drawn), the “activity change, negative = inhibition” value is inactive: 1.04%.
For `CCOC(=O)c1ncn2c1CN(C)C(=O)c1cc(F)ccc1-2`, the molecule was classed as inactive.
Turning to `O=S(=O)(Nc1cccc(-c2ccc(N3CCCCC3)nn2)c1)c1cccs1`, the “activity change, negative = inhibition” value is inactive: 11.7%.
Consider `O=NN(CCCl)C(=O)NCCCl`, for which the “activity change, negative = inhibition” value was inactive: -10.1%.
Still for that read-out and setting: the result for `O=C(Cc1ccc(NC(=O)N2CCSc3ncccc32)cc1)NCc1ccccc1Cl` reads inactive: -15.5%; that for `CCOc1ccc(S(=O)(=O)Nc2ccc3oc(C)c(C(=O)OCCOC)c3c2)cc1`, inactive: -9.58%; that for `Cc1csc2nc(COC(=O)COc3ccccc3F)cc(=O)n12`, inactive: -1.34%.
`CCCC(=O)N1CC(=O)Nc2ccc(Cl)cc2C1c1ccc(F)cc1` (stereo not drawn): the “activity change, negative = inhibition” value is inactive: 2.06%.
On the same count and under the same terms, the result for `CC(=O)c1cccc(NC(=O)CCS(=O)(=O)c2cc(Br)cc3c2N(C(=O)C2CC2)CC3)c1` reads inactive: -4.66%.
On to `CCCn1c(=O)c2sccc2n2c(CCCC(=O)N3CCN(c4ccccc4)CC3)nnc12`, for which the call was inactive.
Consider `COc1ccc(CCNC(=O)Cn2nnc(-c3ccc(C(F)(F)F)cc3)n2)cc1OC`, for which the “activity change, negative = inhibition” value was inactive: -1.91%.
As for `Cn1c(C(=O)NCc2ccc(F)cc2)cc2c(=O)n(C)c3ccccc3c21`, the “activity change, negative = inhibition” value is inactive: 0.132%.
Same read-out and setting: the result for `CCS(=O)(=O)c1ncc(N(Cc2ccco2)Cc2sccc2C)c(C(=O)Nc2cc(C)ccc2C)n1` reads inactive: -6.69%; that for `C[C@@H](N)C1CCC(C(=O)Nc2ccncc2)CC1` (stereo partly drawn), inactive: 19.3%.
Still for that read-out and setting: the result for `Cc1ccccc1NS(=O)(=O)c1ccc2[nH]cc(C(=O)N3CCCC3)c(=O)c2c1` reads inactive: -0.457%; that for `Cc1nc2ccn(Cc3cccnc3)c(=O)c2cc1C(=O)Nc1ccc(OC(F)(F)F)cc1`, inactive: 8.7%.
Regarding `COCCn1c(SCC(=O)Nc2ccc(F)c(Cl)c2)nc2c(oc3ccccc32)c1=O`, the molecule was called inactive.
In the case of `Cc1ccc(Cl)cc1NC(=O)Cn1c(=O)c(CNc2ccccc2)cc2cc3c(cc21)OCCO3`, the “activity change, negative = inhibition” value is inactive: 3.93%.
The same measure, in the same setting: the result for `O=C(Nc1ccccc1C(=O)OCc1cc(=O)n2nc(C3CC3)sc2n1)c1cccc(Cl)c1` reads inactive: 1.98%; that for `Cc1sc2ncn(CC(=O)Nc3cccc(C(F)(F)F)c3)c(=O)c2c1S(=O)(=O)N1CCC(C)CC1`, inactive: 4.63%.
Regarding `CCOC(=O)C1=C(CN2CCN(c3ccccc3)CC2)NC(=O)NC1c1ccc(C)cc1` (stereo not drawn), the molecule was called inactive.
`Cc1c(C(=O)Nc2ccccc2Br)oc2ccc(S(=O)(=O)N3CCCCC3)cc12`: the “activity change, negative = inhibition” value was inactive: 7.36%.
Take `CCN(c1cccc(C)c1)S(=O)(=O)c1nnc(NC(=O)c2cccs2)s1`: the call was inactive.
The same measure, in the same setting: the result for `COc1ccc(-c2c(C)nn3c4c(cnc23)C(=O)CC(c2ccc(C)cc2)C4)cc1` (stereo not drawn) reads “inactive”; that for `COc1ccc(C(=O)Nc2cc(C(F)(F)F)ccc2N2CCN(c3ccccc3)CC2)cc1OC`, “inactive”.
On to `Cc1cccc(Cn2c(CN3CCC(C(=O)NCCc4ccccc4)CC3)cc3ccccc32)c1`, for which the “activity change, negative = inhibition” value is inactive: 0.737%.
